# Out of some 350,000 compounds screened, about 260 (0.074%) were called active. This list was built around the results that the source calls inconclusive (neither active nor inactive); the mix of calls is not that of the screen. Calls follow the shape of the dose curve; as a rule, active = well fitted inhibition curve with a large enough effect; inconclusive = small, poorly fitted or top-dose-only effect; inactive = no such curve, though single readings can be large or run the other way. Potencies beside an inconclusive call are fits to weak or partial responses and may not hold up.
# Target: Ferritin light chain (Equus caballus) (UniProt P02791)
# Test: qHTS Assay for Identification of Novel General Anesthetics; also: nearly all actives have a fitted effect of over 20% in size
# Details: apoferritin/1-aminoanthracene competitive binding, fluorescence; activity change, negative = displacement: at 77.5 µM (top of the series)
# In short: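 Steps: apoferritin (10 uM) was premixed with half-saturated 1-AMA in PBS, compounds were pin-transferred, plates stood 10 min at room temperature, fluorescence was read at 380/535 nm, and curves were fitted with a Hill equation.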
# % is scaled to controls: 0 for no effect and ±100 for the full control effect; tags tell the direction and shape of the fitted curve.
# Chain of UniProt P02791 (P02791 whole entry, looked up): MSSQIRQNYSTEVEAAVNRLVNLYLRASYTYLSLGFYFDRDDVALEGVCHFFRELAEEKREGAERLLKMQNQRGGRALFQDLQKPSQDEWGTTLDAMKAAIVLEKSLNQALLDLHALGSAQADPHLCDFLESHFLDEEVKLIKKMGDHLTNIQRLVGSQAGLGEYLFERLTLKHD
SMILES,Potency,"activity change, negative = displacement"
CCc1ccc(C(CNC(=O)c2ccc3c(=O)n(-c4ccccc4F)c(=S)[nH]c3c2)N(C)C)cc1 (configuration not stated),"inconclusive: 31.6 µM [inhibitor, partial curve]",–
Cc1ccc(NC2=NC(c3ccc(O)cc3)n3c(nc(C)cc3=O)N2)cc1 (configuration not stated),"inconclusive: 35.5 µM [inhibitor, partial curve]",–
CCOc1ccc2nc(N(Cc3cccnc3)C(=O)c3ccco3)sc2c1,–,inactive: -8.09%
O=C(COc1ccccc1)NC(NC(=S)Nc1ccccc1O)C(Cl)(Cl)Cl (configuration not stated),"inconclusive: 14.1 µM [inhibitor, partial curve]",–
Cc1cc2cc(CNC(=S)NC3CCCCC3)ccc2[nH]1,"inconclusive: 17.8 µM [inhibitor, partial curve]",–
CCOC(=O)c1cc(CC)sc1NC(=O)CN1CCN(C(=O)c2ccco2)CC1,"inconclusive: 39.8 µM [inhibitor, single point]",–
O=C(NCc1ccccc1Cl)c1cc(-c2ccccc2)n[nH]1,"inconclusive: 50.1 µM [inhibitor, single point]",–
O=c1cc(O)nc(SC23CC4CC(CC(C4)C2)C3)[nH]1,"inconclusive: 39.8 µM [inhibitor, single point]",–
Cc1ccc(NC(=O)c2ccc(F)c(S(=O)(=O)NCCc3ccccc3)c2)cc1F,"inconclusive: 5.01 µM [inhibitor, full curve]",–
O=C(NCc1ccc(Cl)cc1)C(=O)NCC1OCCN1S(=O)(=O)c1ccc2c(c1)OCCO2 (configuration not stated),"inconclusive: 4.47 µM [inhibitor, full curve]",–
COc1ccc(C(=O)NC(=O)COC(=O)C2COc3ccccc3O2)cc1 (configuration not stated),"inconclusive: 11.2 µM [inhibitor, partial curve]",–
CCN(CC)S(=O)(=O)c1ccc(C(=O)NCc2ccc3c(c2)OCO3)cc1,"inconclusive: 12.6 µM [inhibitor, partial curve]",–
O=C(CCSc1ccc(Cl)cc1)N1CCCCCC1,"inconclusive: 35.5 µM [inhibitor, partial curve]",–
COC(=O)[C@@H]1[C@@H]2C[C@H]3c4[nH]c5cc(OC)ccc5c4CCN3C[C@@H]2C[C@H](OC(=O)c2cc(OC)c(OC)c(OC)c2)[C@H]1OC,–,inactive: -17.2% [at 29.3 µM]
CCS(=O)(=O)N1N=C(c2cccc(NS(C)(=O)=O)c2)CC1c1ccc(C)cc1 (configuration not stated),–,inactive: -15.3%
COc1ccccc1CNC(=O)c1cc2cccc3c2n1CCS3,–,inactive: 4.8%
Nc1ncnc(Oc2cccc(C(F)(F)F)c2)c1[N+](=O)[O-],"inconclusive: 12.6 µM [inhibitor, partial curve]",–
COc1ccc(OC)c(C2CC(=O)N3CN(c4ccccc4)CSC3=C2C#N)c1 (configuration not stated),"inconclusive: 31.6 µM [inhibitor, single point]",–
COc1ccc(Cn2c3ccc(OC)cc3c3nc4ccccc4nc32)cc1,–,inactive: 6.51%
CCCSc1ncc(Cl)c(C(=O)NCc2ccc(C)cc2)n1,"inconclusive: 14.1 µM [inhibitor, partial curve]",–
CN1c2ccccc2C(C)(C)[C@]12C=Cc1cc(O)ccc1O2,"inconclusive: 31.6 µM [inhibitor, single point]",–

SMILES,Potency,"activity change, negative = displacement"
O=C(COc1ccc2ccc(=O)oc2c1)OCc1ccccc1,"inconclusive: 31.6 µM [inhibitor, partial curve]",–
CC(C)(C)NC(=S)Nc1ccc(Nc2ccccc2)cc1,"inconclusive: 28.2 µM [inhibitor, partial curve]",–
Cc1cc(Cl)ccc1NC(=O)CCS(=O)(=O)c1ccc2c(c1)CC(C)N2C(=O)C1CC1 (configuration not stated),–,inactive: -9.09%
Oc1ccccc1-c1nc2c3ccccc3c3ccccc3c2[nH]1,–,inactive: -8.81%
Cc1ccc(/C=C/C(=O)NC2CCCCCCC2)o1,"inconclusive: 20 µM [inhibitor, single point]",–
O=C(Nc1ccc(OCC(=O)N2CCOCC2)cc1)Nc1cccc(Cl)c1,–,inactive: -9.14%
COc1ccc(OCC(=O)N/N=C/C2CC=CCC2)cc1 (configuration not stated),"inconclusive: 22.4 µM [inhibitor, single point]",–
Cc1ccc(S(=O)(=O)NCCCNc2ccc([N+](=O)[O-])cc2)cc1,"inconclusive: 28.2 µM [inhibitor, partial curve]",–
O=C(Nc1cccc(C(F)(F)F)c1)c1ccc2nc(-c3ccco3)c(-c3ccco3)nc2c1,"inconclusive: 28.2 µM [inhibitor, single point]",–
CC(C)c1ccc(NC(=O)CSc2nnc(-c3ccccn3)n2C)cc1,"inconclusive: 35.5 µM [inhibitor, partial curve]",–
Cc1cc(/C(N)=N/OC(=O)c2ccc(Cl)cc2)no1,–,inactive: -16.9%
CCCOc1c(Cl)cc(/C=N/O)cc1OCC,"inconclusive: 22.4 µM [inhibitor, partial curve]",–
COc1ccc(C(=O)N2CC3(C)CC2CC(C)(C)C3)cc1 (configuration not stated),"inconclusive: 25.1 µM [inhibitor, partial curve]",–
Cc1nc2cc3ccccc3cc2c(=O)[nH]1,–,inactive: 151%
Cc1cc(-n2c(C)cc(C(=O)CN3C(=O)NC4(CCCCC4C)C3=O)c2C)no1 (configuration not stated),"inconclusive: 15.8 µM [inhibitor, partial curve]",–
CC1CCCC(C)N1C(=O)CSc1nccc(=O)[nH]1 (configuration not stated),"inconclusive: 31.6 µM [inhibitor, partial curve]",–
O=C(NCc1ccccc1)C1=C[C@@H](c2ccc(C(F)(F)F)cc2)C[C@@H](OCc2ccc(CO)cc2)O1,"inconclusive: 6.31 µM [inhibitor, full curve]",–
CC(C)N(Cc1nc(-c2ccccc2)no1)C(=O)C(Cl)(Cl)Cl,"inconclusive: 11.2 µM [inhibitor, partial curve]",–
COc1ccc(-n2nnnc2SCC(=O)c2ccc(OC)c(OC)c2)cc1,"inconclusive: 35.5 µM [inhibitor, partial curve]",–
CCCN1CCN(c2ncnc3sc(C(=O)Nc4ccc(OC(F)(F)F)cc4)c(C)c23)CC1,"inconclusive: 22.4 µM [inhibitor, partial curve]",–
CCc1nnc(NC(=O)CSc2nnc(-c3ccccc3O)n2CC)s1,"inconclusive: 25.1 µM [inhibitor, single point]",–

# Reference: PubChem BioAssay AID485281 (National Center for Advancing Translational Sciences (NCATS), 2010)
